Tests used:
[1] = test system: Hh pathway in C3H10T1/2 cells; test: C3H10T1/2 AP fluorescence assay with purmorphamine (PUR) as pathway activator; type: cell-based, murine; details: Mus musculus, C3H 10T1/2, 120 h; PUR 500 nM, 5 days, repurchased compounds; read-out: C3H10T1/2 (PUR; Flu AP, IC50 μM)
[2] = test system: Hh pathway in C3H10T1/2 cells; test: C3H10T1/2 Hedgehog-responsive cell-based assay, alkaline phosphatase (AP) fluorescence readout; parameters: species or system murine; details: Mus musculus, C3H 10T1/2, 120 h, SAG 30 nM, 5 days
[3] = fluorescence AP readout, read-out: C3H10T1/2 (Flu AP, IC50 μM)
[4] = repurchased compounds, read-out: IC50, C3H10T1/2 Flu AP, retest with SAG (Figure S3)

SMILES | IC50 [1] | IC50 [2, 3] | IC50 [2, 4]
c1cc(CNc2ccc(N3CCCC3)cc2)ccn1 [BAS 07019774, pyridin-4-ylmethyl-(4-pyrrolidin-1-yl-phenyl)-amine] | 6.5 µM | 5.5 µM | 6.5 µM
N#Cc1ccc(C(=O)Nc2ccccc2C(=O)NC2CC2)cc1 [Compound Z27610715] | 8.1 µM | 1.1 µM | –
CN(C)c1ccccc1CN1CCCN(Cc2ccccc2N(C)C)C1c1ccncc1 [GANT61] | 2.5 µM | 10.5 µM | 2.8 µM

Source: paper PMC11243198, “Identification of Novel GANT61 Analogs with Activity in Hedgehog Functional Assays and GLI1-Dependent Cancer Cells” (Molecules, 2024)
